From the supplement of paper PMC9151546
Many values rest on one well or one pass, so single values are uncertain.

Assays:
CHO-K1 [1] = experiment: micronucleus frequency (% of nucleated events); higher = more micronuclei (genotoxic)
CHO-K1 [2] = experiment: relative survival (nuclei to bead ratio vs DMSO control) (% of vehicle control); higher = more surviving cells
Protocol: (§1)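 Flow-cytometric in vitro micronucleus assay (Litron MicroFlow) in CHO-K1 cells in 96-well plates, 19 concentrations (4.5-200 µM, n=1 per concentration). Without S9, cells were exposed for 24 h and sampled at 48 h. With Aroclor 1254-induced rat liver S9, cells were exposed for 3-4 h and sampled at 27-28 h. Read-outs are %MN and %hypodiploid nuclei relative to nucleated events, and relative survival as the nuclei-to-bead ratio versus the 1% DMSO vehicle control (x100).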

CHO-K1 [3] = experiment: hypodiploid nuclei frequency (% of nucleated events); higher = more hypodiploid events (aneugenic)
Protocol: as §1
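Wherever hypodiploid nuclei frequency (% of nucleated events) is given: hypodiploid nuclei gated on a flow cytometer with 488 nm excitation after SYTOX Green staining, cultures at 37 °C, positive controls vinblastine without S9 and cyclophosphamide with S9.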
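Wherever micronucleus frequency (% of nucleated events) is given: cells lysed with nuclei stained by SYTOX Green, then micronucleus-gated events counted against nucleated events by flow cytometry with 488 nm excitation.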
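Wherever relative survival (nuclei to bead ratio vs DMSO control) is given: Lysed-cell nuclei stained with SYTOX Green and counted against counting beads by flow cytometry at 488 nm excitation, with vinblastine (no S9) and cyclophosphamide (plus S9) as positive controls.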

CC1(C)C(=O)N(Br)C(=O)N1Br [1,3-Dibromo-5,5-dimethylhydantoin]
Conditions	hypodiploid nuclei frequency, CHO-K1 [3] [%]	micronucleus frequency, CHO-K1 [1] [%]	relative survival, CHO-K1 [2]
concentration: 4.5 (µM), S9 metabolic activation: with S9, exposure time: 3-4 hours	0.36	1.58	99.2
concentration: 4.5 (µM), S9 metabolic activation: without S9, exposure time: 24 hours	0.64	1.78	116
concentration: 5.63 (µM), S9 metabolic activation: with S9, exposure time: 3-4 hours	0.2	1.46	86.7
concentration: 5.63 (µM), S9 metabolic activation: without S9, exposure time: 24 hours	0.54	2.54	112
concentration: 7.04 (µM), S9 metabolic activation: with S9, exposure time: 3-4 hours	0.18	1.3	88.4
concentration: 7.04 (µM), S9 metabolic activation: without S9, exposure time: 24 hours	0.64	1.84	121
concentration: 8.8 (µM), S9 metabolic activation: with S9, exposure time: 3-4 hours	0.28	1.7	82.9
concentration: 8.8 (µM), S9 metabolic activation: without S9, exposure time: 24 hours	0.64	1.82	124
concentration: 11 (µM), S9 metabolic activation: with S9, exposure time: 3-4 hours	0.16	1.24	83.9
concentration: 11 (µM), S9 metabolic activation: without S9, exposure time: 24 hours	0.9	2.02	115
concentration: 13.7 (µM), S9 metabolic activation: with S9, exposure time: 3-4 hours	0.12	1.52	98.2
concentration: 13.7 (µM), S9 metabolic activation: without S9, exposure time: 24 hours	0.68	1.38	121
concentration: 17.2 (µM), S9 metabolic activation: with S9, exposure time: 3-4 hours	0.28	1.32	108
concentration: 17.2 (µM), S9 metabolic activation: without S9, exposure time: 24 hours	0.76	2.1	104
concentration: 21.5 (µM), S9 metabolic activation: with S9, exposure time: 3-4 hours	0.18	1.36	101
concentration: 21.5 (µM), S9 metabolic activation: without S9, exposure time: 24 hours	0.78	1.62	124
concentration: 26.8 (µM), S9 metabolic activation: with S9, exposure time: 3-4 hours	0.24	0.98	113
concentration: 26.8 (µM), S9 metabolic activation: without S9, exposure time: 24 hours	0.68	1.46	109
concentration: 33.6 (µM), S9 metabolic activation: with S9, exposure time: 3-4 hours	0.14	1.14	95.9
concentration: 33.6 (µM), S9 metabolic activation: without S9, exposure time: 24 hours	0.66	1.3	124
concentration: 41.9 (µM), S9 metabolic activation: with S9, exposure time: 3-4 hours	0.34	1.26	83.9
concentration: 41.9 (µM), S9 metabolic activation: without S9, exposure time: 24 hours	0.68	1.22	110
concentration: 52.4 (µM), S9 metabolic activation: with S9, exposure time: 3-4 hours	0.1	1.08	97.2
concentration: 52.4 (µM), S9 metabolic activation: without S9, exposure time: 24 hours	0.86	1.32	124
concentration: 65.5 (µM), S9 metabolic activation: with S9, exposure time: 3-4 hours	0.24	1.06	85.2
concentration: 65.5 (µM), S9 metabolic activation: without S9, exposure time: 24 hours	0.82	1.42	108
concentration: 81.9 (µM), S9 metabolic activation: with S9, exposure time: 3-4 hours	0.26	1.28	91.5
concentration: 81.9 (µM), S9 metabolic activation: without S9, exposure time: 24 hours	0.8	1.48	114
concentration: 102 (µM), S9 metabolic activation: with S9, exposure time: 3-4 hours	0.12	0.98	75
concentration: 102 (µM), S9 metabolic activation: without S9, exposure time: 24 hours	0.8	1.48	112
concentration: 128 (µM), S9 metabolic activation: with S9, exposure time: 3-4 hours	0.18	1.24	73.2
concentration: 128 (µM), S9 metabolic activation: without S9, exposure time: 24 hours	1.38	1.7	108
concentration: 160 (µM), S9 metabolic activation: with S9, exposure time: 3-4 hours	0.26	1.64	83.4
concentration: 160 (µM), S9 metabolic activation: without S9, exposure time: 24 hours	1.06	1.96	95.5
concentration: 200 (µM), S9 metabolic activation: with S9, exposure time: 3-4 hours	0.12	1.5	72.1
concentration: 200 (µM), S9 metabolic activation: without S9, exposure time: 24 hours	1.06	2.56	94.7

OC(CCl)CCl [1,3-Dichloro-2-propanol]
Conditions	hypodiploid nuclei frequency, CHO-K1 [3] [%]	micronucleus frequency, CHO-K1 [1] [%]	relative survival, CHO-K1 [2]
concentration: 4.5 (µM), S9 metabolic activation: with S9, exposure time: 3-4 hours	0.18	0.9	116
concentration: 4.5 (µM), S9 metabolic activation: without S9, exposure time: 24 hours	0.34	0.96	106
concentration: 5.63 (µM), S9 metabolic activation: with S9, exposure time: 3-4 hours	0.08	0.8	107
concentration: 5.63 (µM), S9 metabolic activation: without S9, exposure time: 24 hours	0.6	1.24	97.5
concentration: 7.04 (µM), S9 metabolic activation: with S9, exposure time: 3-4 hours	0.2	0.84	121
concentration: 7.04 (µM), S9 metabolic activation: without S9, exposure time: 24 hours	0.38	1.04	120
concentration: 8.8 (µM), S9 metabolic activation: with S9, exposure time: 3-4 hours	0.2	0.72	117
concentration: 8.8 (µM), S9 metabolic activation: without S9, exposure time: 24 hours	0.36	1.34	131
concentration: 11 (µM), S9 metabolic activation: with S9, exposure time: 3-4 hours	0.2	0.9	156
concentration: 11 (µM), S9 metabolic activation: without S9, exposure time: 24 hours	0.52	1.48	122
concentration: 13.7 (µM), S9 metabolic activation: with S9, exposure time: 3-4 hours	0.2	1.02	128
concentration: 13.7 (µM), S9 metabolic activation: without S9, exposure time: 24 hours	0.36	1.36	109
concentration: 17.2 (µM), S9 metabolic activation: with S9, exposure time: 3-4 hours	0.24	1.48	147
concentration: 17.2 (µM), S9 metabolic activation: without S9, exposure time: 24 hours	0.58	1.36	117
concentration: 21.5 (µM), S9 metabolic activation: with S9, exposure time: 3-4 hours	0.32	1.02	158
concentration: 21.5 (µM), S9 metabolic activation: without S9, exposure time: 24 hours	0.44	1.3	107
concentration: 26.8 (µM), S9 metabolic activation: with S9, exposure time: 3-4 hours	0.18	0.88	86
concentration: 26.8 (µM), S9 metabolic activation: without S9, exposure time: 24 hours	0.46	1.46	94.9
concentration: 33.6 (µM), S9 metabolic activation: with S9, exposure time: 3-4 hours	0.16	0.92	102
concentration: 33.6 (µM), S9 metabolic activation: without S9, exposure time: 24 hours	0.5	1.36	120
concentration: 41.9 (µM), S9 metabolic activation: with S9, exposure time: 3-4 hours	0.12	1.02	104
concentration: 41.9 (µM), S9 metabolic activation: without S9, exposure time: 24 hours	0.6	1.42	97.5
concentration: 52.4 (µM), S9 metabolic activation: with S9, exposure time: 3-4 hours	0.28	0.82	119
concentration: 52.4 (µM), S9 metabolic activation: without S9, exposure time: 24 hours	0.54	1.02	101
concentration: 65.5 (µM), S9 metabolic activation: with S9, exposure time: 3-4 hours	0.18	1.06	109
concentration: 65.5 (µM), S9 metabolic activation: without S9, exposure time: 24 hours	0.66	1.26	100
concentration: 81.9 (µM), S9 metabolic activation: with S9, exposure time: 3-4 hours	0.32	1.06	115
concentration: 81.9 (µM), S9 metabolic activation: without S9, exposure time: 24 hours	0.72	1.32	118
concentration: 102 (µM), S9 metabolic activation: with S9, exposure time: 3-4 hours	0.16	1.32	107
concentration: 102 (µM), S9 metabolic activation: without S9, exposure time: 24 hours	0.8	1.54	89.7
concentration: 128 (µM), S9 metabolic activation: with S9, exposure time: 3-4 hours	0.18	1.2	120
concentration: 128 (µM), S9 metabolic activation: without S9, exposure time: 24 hours	0.84	1.42	103
concentration: 160 (µM), S9 metabolic activation: with S9, exposure time: 3-4 hours	0.2	1.14	128
concentration: 160 (µM), S9 metabolic activation: without S9, exposure time: 24 hours	0.98	1.42	99.7
concentration: 200 (µM), S9 metabolic activation: with S9, exposure time: 3-4 hours	0.26	1.52	109
concentration: 200 (µM), S9 metabolic activation: without S9, exposure time: 24 hours	1	1.7	77
